{"source": "ChEMBL document CHEMBL4888484", "about": "“Replenishing the malaria drug discovery pipeline: Screening and hit evaluation of the MMV Hit Generation Library 1 (HGL1) against asexual blood stage Plasmodium falciparum ,using a nano luciferase reporter read-out” (2022)", "note": "The campaign covered roughly 150,000 compounds. About 540 (0.36%) showed an effect of 50% or more. The list shows a part of the results.", "data": [{"tested_on": "Plasmodium falciparum", "test": "Primary screen in NF54 nanoGlo assay, in single point, at 2uM, 72h; a lower Z score goes with more inhibition", "format": "functional, Erythrocyte", "details": "timepoint 72 hour", "units": {"% Inhibition": "%"}, "values": [{"smiles": "C[C@H](NC(=O)C1CCN(S(C)(=O)=O)CC1)c1ccccn1", "% Inhibition": 4, "Z score": -0.76}, {"smiles": "C[C@H]1C(=O)N(c2cccc3ccccc23)CCN1Cc1ccccc1", "% Inhibition": -20, "Z score": 1.96}, {"smiles": "CCn1nc(C(=O)N2CCN(C)CC2)c2c1CC[C@H](NC1Cc3ccccc3C1)C2", "% Inhibition": 1, "Z score": -0.28}, {"smiles": "C#Cc1ccc(CN2CCC[C@H](CCC(=O)N(C)C3CCN(C)CC3)C2)cc1", "% Inhibition": -2, "Z score": 0.35}, {"smiles": "Cc1n[nH]c(C)c1Cn1cnc(-c2ccccc2)c1-c1ccc(C#CCO)cc1", "% Inhibition": -11, "Z score": 1.08}, {"smiles": "COC(=O)c1ccnc(NC(=O)C[C@H]2CCCCN2C(C)=O)c1", "% Inhibition": 8, "Z score": -1.03}, {"smiles": "C[C@H]1CN(C(=O)NCc2cccc(COC3CCOCC3)c2)CCO1", "% Inhibition": -4, "Z score": 0.83}, {"smiles": "CCCOC1(c2noc([C@@H]3CCCN3CCC)n2)CCCCC1", "% Inhibition": 2, "Z score": -0.36}, {"smiles": "CCn1nc(C(=O)N2CCCCC2)c2c1CC[C@H](NCc1cccc(C)n1)C2", "% Inhibition": 4, "Z score": -0.77}, {"smiles": "CCCCN(C)C[C@@H]1OC[C@H](NC(=O)c2cccc(F)c2)[C@H]1O", "% Inhibition": 29, "Z score": -3.41}, {"smiles": "Cc1noc(C(C)(C)NC(=O)Nc2ccnn2[C@@H](C)CC(C)C)n1", "% Inhibition": -17, "Z score": 2.35}, {"smiles": "CCN(C(C)=O)c1nc(CN[C@H]2CCc3ncnn3C2)cs1", "% Inhibition": -8, "Z score": 0.94}, {"smiles": "Cc1cc(S(=O)(=O)Nc2nnc(CC3CCCC3)o2)c(C)o1", "% Inhibition": 0, "Z score": 0.02}, {"smiles": "Cc1nc(-n2nc(C3CC3)cc2N)[nH]c(=O)c1C", "% Inhibition": 17, "Z score": -1.97}, {"smiles": "CC(C)(C)C(=O)N1C[C@H](c2nc(-c3ccc(F)cc3)no2)C2(CCOCC2)C1", "% Inhibition": 4, "Z score": -0.8}, {"smiles": "CCN(C(=O)Cn1cc(NC(C)=O)cn1)c1ccccc1", "% Inhibition": -9, "Z score": 1.27}, {"smiles": "Cc1noc(C)c1C(=O)NCc1ccnn1C", "% Inhibition": -11, "Z score": 1.36}, {"smiles": "Cc1ccc(Br)cc1C(=O)N1CCCS(=O)(=O)CC1", "% Inhibition": -1, "Z score": 0.14}, {"smiles": "CC1(C#N)CN(C(=O)CC(F)(F)F)C1", "% Inhibition": -1, "Z score": 0.13}, {"smiles": "COc1ccc(NC(=O)N2CCC(CN(C/C(C)=C/c3ccccc3)C(=O)C[C@@H](C)CC(C)(C)C)CC2)cc1", "% Inhibition": -10, "Z score": 0.93}, {"smiles": "CC12COC3(C#N)C(Br)(Br)C1CCC23C", "note": "(stereo unspecified)", "% Inhibition": -1, "Z score": 0.15}, {"smiles": "O=C(c1cnccn1)N1CCCCCCn2c(nnc2-c2ccc(F)cc2)CC1", "% Inhibition": -12, "Z score": 1.52}, {"smiles": "C[C@]1(NC(=O)c2nn(Cc3ccccc3)c(=O)c3ccccc23)CCS(=O)(=O)C1", "% Inhibition": -2, "Z score": 0.25}, {"smiles": "COc1ccc2cc(C(=O)NCC3CCN(c4nccnc4C#N)CC3)[nH]c2c1", "% Inhibition": -12, "Z score": 1.7}, {"smiles": "Cc1ccccc1N1CCN(C(=O)C[C@@H]2NC(=O)NC2=O)CC1", "% Inhibition": -1, "Z score": 0.07}, {"smiles": "Cc1noc([C@H](C)N(C)C(=O)c2[nH]cnc2-c2ccccc2)n1", "% Inhibition": -14, "Z score": 2.34}, {"smiles": "CCN1CCN(C(=O)CCC2CCN(C(=O)Cc3ccc(OC)c(OC)c3)CC2)CC1", "% Inhibition": 4, "Z score": -0.57}, {"smiles": "CN(Cc1ccccc1)C(=O)c1cc2cc(N(C)S(C)(=O)=O)ccc2s1", "% Inhibition": -16, "Z score": 2.05}, {"smiles": "c1ccc2c(c1)CCCCN2CCn1cncn1", "% Inhibition": -9, "Z score": 1.26}, {"smiles": "CC(C)COC1CCN(C(=O)[C@H]2CCN(C)C(=O)C2)CC1", "% Inhibition": -9, "Z score": 1.46}, {"smiles": "Cc1cc(OC(=O)c2nc3nccc(C)n3n2)cc(C)c1Cl", "% Inhibition": -43, "Z score": 5.06}, {"smiles": "COC(=O)[C@@H]1CC[C@@H]1S(=O)(=O)Oc1cccc2cccnc12", "% Inhibition": 3, "Z score": -0.36}, {"smiles": "O=C(O)c1cccc(NC(=O)c2ccc3c(c2)C(=O)N(c2nccs2)C3=O)c1", "% Inhibition": -14, "Z score": 1.91}, {"smiles": "CCN(c1ccc2[nH]ccc2c1)S(=O)(=O)Cc1ccc(F)cc1", "% Inhibition": 35, "Z score": -3.92}, {"smiles": "COc1ccc(CNc2ncccc2C(=O)N2CCOCC2)cc1", "% Inhibition": -12, "Z score": 1.2}, {"smiles": "Cc1c(Br)c(C)n(NC(=O)c2cnn(Cc3ccccc3)c2)c(=O)c1C#N", "% Inhibition": 31, "Z score": -4.43}, {"smiles": "CC(C)NC(=O)N(CC(=O)N1CCc2sccc2[C@@H]1COc1ccc(F)cc1)CC1CC1", "% Inhibition": -9, "Z score": 1.82}, {"smiles": "Cc1ccccc1NC(=O)[C@H]1c2cccc[n+]2CC(=O)N1c1ccc2c(c1)OCO2", "% Inhibition": -9, "Z score": 1.37}, {"smiles": "CN(Cc1ncc(Cl)n1C)C1Cc2ccccc2C1", "% Inhibition": 8, "Z score": -1.04}, {"smiles": "C[C@@H](CO)NC(=O)[C@H]1CC[C@H](Cn2cnc3ccccc3c2=O)CC1", "% Inhibition": -12, "Z score": 1.46}, {"smiles": "Cc1cc(C(=O)NC[C@H]2Cc3ccccc3CO2)no1", "% Inhibition": 14, "Z score": -1.57}, {"smiles": "CC(Oc1cccnc1)C(=O)N1CC(C)[S+]([O-])C(C)C1", "note": "(stereo unspecified)", "% Inhibition": -1, "Z score": 0.2}, {"smiles": "CC(C)c1noc([C@H]2CCCN(C(=O)c3cccc4c3CCC4=O)C2)n1", "% Inhibition": -3, "Z score": 0.57}]}]}
